The record followed here is the supplement of paper PMC3724861.

The other results are listed elsewhere or left out.

The assay concerns T1, Caupolican (Caup) homeodomain DNA-binding domain.
T1 sequence: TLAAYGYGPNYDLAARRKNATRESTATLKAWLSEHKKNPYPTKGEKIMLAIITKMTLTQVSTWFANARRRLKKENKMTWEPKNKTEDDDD
The experiment in a line: PBM E-score (8-mer, recovered from the published 9-mer minima) (E-score (dimensionless, -0.5 to 0.5)); Drosophila protein; higher = stronger relative binding preference, active = 0.31 or more. Summed up: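 Caup's homeodomain DNA-binding domain (residues 214-303) was made by in vitro transcription and translation and applied at 100 nM to custom-designed protein binding microarrays. Each value is an enrichment score that gives relative binding preference for a short DNA word, with higher meaning stronger. The 8-mer values were recovered from published 9-mer scores, each of which was the minimum of its two constituent 8-mer scores. A cutoff of 0.31 marks candidate sites.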
Consider GATGTCGC, for which the “PBM E-score” value is inactive: 0.201.
Next, CTCATACC: inactive: 0.033.
Under GATTGGGA stands inactive: -0.00727; under CAATGATA, inactive: 0.172; under CTGCATAA, inactive: -0.00727.
Next, AAAGCCTT: inactive: -0.0862; AGTTCACC: inactive: -0.0061.
With CGTGATAA, the “PBM E-score” value was inactive: 0.117.
Next, GAGGCCAC: inactive: -0.191; CCTCACAG: inactive: -0.1.
Next, GTTTGGTA: inactive: 0.135; ATTCTTCG: inactive: -0.0248; ATCCCTCG: inactive: -0.0432.
Next, AGGTAATA: inactive: 0.0994; GTGGCCCA: inactive: -0.233.
Consider AGGCCACA, for which the “PBM E-score” value was inactive: -0.113.
With ACTTCATC, the “PBM E-score” value was inactive: 0.00844.
With AGGTCGTG, the “PBM E-score” value was inactive: 0.03.
Next, GAAGGTAC: inactive: 0.0158; CAAAAGCC: inactive: -0.114; CGATTGTC: inactive: 0.0794.
As to AATACAGC, the “PBM E-score” value was inactive: 0.0781.
CTGATCGA: the “PBM E-score” value is inactive: -0.0424.
Take TCCCCAAA: the “PBM E-score” value was inactive: 0.00712.
For GACGCCTA, the “PBM E-score” value is inactive: -0.175.
With CCAGTGAA, the “PBM E-score” value was inactive: -0.125.
With CCGCGGCG, the “PBM E-score” value was inactive: -0.216.
For CAAGACCC, the “PBM E-score” value is inactive: -0.113.
Turning to AAGACTCG, the “PBM E-score” value is inactive: 0.0334.
Under CACGCTGA stands inactive: -0.0394.
Next, CAGCGCAG: inactive: -0.131; CTGGTTTC: inactive: -0.0521.
ACCGAACT: the “PBM E-score” value was inactive: 0.0313.
Under AGCACAAC stands inactive: 0.124.
Under AAGAACAC stands active: 0.312; under AAATTGTG, inactive: 0.136.
Under AAGGCTGA stands inactive: -0.0562.
As for GACCCCAC, the “PBM E-score” value was inactive: -0.234.
As for ACCTGACC, the “PBM E-score” value is inactive: 0.0317.
In the case of AAAAACAC, the “PBM E-score” value is inactive: 0.253.
As for CAGTGCAC, the “PBM E-score” value was inactive: -0.0496.
As for AGATGCAG, the “PBM E-score” value was inactive: -0.00012.
Under AATTATCT stands inactive: 0.163; under CTCTTATA, inactive: 0.0528.
In the case of TCAATGGA, the “PBM E-score” value was inactive: 0.00931.
Under GGTCGTGA stands inactive: 0.00406.
Take ATACTTTG: the “PBM E-score” value is inactive: 0.111.
Next, GAGAACCC: inactive: -0.153.
Under GTAGCGTA stands inactive: -0.0339.
Under CAAGACGA stands inactive: 0.0859; under CTGGCGGC, inactive: -0.23; under ACGTTGAT, not below 0.145.
For the sequence AGTGTGCA, the “PBM E-score” value was inactive: 0.0526.
Next, ATGACATA: active: 0.379; CGATGCAA: inactive: -0.0787; CCGACCGG: inactive: -0.168.
Under ATTTGAGC stands inactive: 0.00227; under ACAGCCCA, not below -0.0208.
As for CATAGGTA, the “PBM E-score” value is inactive: 0.0694.
Under ATCGCTCA stands inactive: -0.0123; under ATTCGATG, inactive: 0.092; under GATTTGCA, inactive: 0.0416.
Next, AACTCCTG: inactive: -0.0221; TATCTCAA: not below 0.133; AACCGATA: inactive: 0.101.
Turning to CTTATCCA, the “PBM E-score” value was inactive: 0.0263.
Under AAAAGATA stands inactive: 0.0967; under CCATCCCG, inactive: -0.136.
Take ACCATGGC: the “PBM E-score” value is inactive: 0.0502.
Next, GCCTTCGA: inactive: -0.142; GGCAATAC: inactive: -0.0061.
On to CGAGACCG, for which the “PBM E-score” value was inactive: -0.0623.
Under AAGCAGAC stands inactive: 0.00377; under AGTGGAAA, inactive: 0.0405; under CCGTGCGA, inactive: -0.037.
Next, CTGAAAGA: inactive: -0.0917.
For TCTAGACA, the “PBM E-score” value is inactive: 0.208.
Under ACATCTAG stands inactive: 0.202; under ATCAACAC, inactive: 0.233; under CTTCATAC, inactive: 0.0612.
In the case of AATCAACA, the “PBM E-score” value is inactive: 0.291.
Next, CTTGAGCC: inactive: -0.215; GAGCTCTA: inactive: -0.0532; CGCCTGGA: inactive: -0.154.
Turning to CTGTCGCC, the “PBM E-score” value was inactive: -0.0386.
GCGAGTCC: the “PBM E-score” value was inactive: -0.184.
Regarding ATCGGGCC, the “PBM E-score” value is inactive: -0.2.
Turning to GACTCGAA, the “PBM E-score” value is inactive: -0.102.
For the sequence TAATTCAA, the “PBM E-score” value is not below 0.174.
Next, ACGTAAGA: not below 0.0887; CGTGGATC: inactive: -0.0533.
Turning to GATGGCGC, the “PBM E-score” value is inactive: -0.218.
Next, ACTACTAT: inactive: 0.235; GTCACACA: inactive: 0.12.
For the sequence CTGTCAAA, the “PBM E-score” value is inactive: 0.164.
Under ATAGGCAT stands inactive: 0.0359; under GCCTTCAC, inactive: -0.12; under AGGGGTTA, not below -0.0574.
As for AGACCTAC, the “PBM E-score” value is inactive: -0.00386.
With CATCTAAG, the “PBM E-score” value is inactive: -0.0746.
Next, TCGATAAA: inactive: 0.043; CACTTTGG: inactive: -0.0554; AGACGGCC: inactive: -0.226.
For GCGAAAAA, the “PBM E-score” value is inactive: -0.0202.
On to AAATGGGA, for which the “PBM E-score” value is inactive: -0.0126.
Next, CAAATTGG: inactive: 0.0392; CAAGATGG: inactive: 0.0306; CCACTGCA: inactive: -0.0769.
Next, GGTTTTAA: inactive: 0.0766.
Next, AACATGCA: active: 0.392; AGACCCTG: inactive: -0.055.
Turning to TAATCGAA, the “PBM E-score” value was inactive: 0.135.
Turning to CCTAGCTC, the “PBM E-score” value is inactive: -0.185.
Next, CCAACCCG: inactive: -0.183; GGCTTGAA: inactive: -0.103; ACATTAGA: inactive: 0.151.
Under CCTAATAG stands inactive: -0.041; under CGTTGCAG, inactive: 0.0112.
Under GGTGTGAA stands inactive: 0.0932.
For AATTCGTA, the “PBM E-score” value is inactive: 0.126.
Next, CCTTTGCC: inactive: -0.0643; GAGAGCGA: inactive: -0.106.
Turning to CACACATG, the “PBM E-score” value was inactive: 0.192.
Consider GTGCTTTA, for which the “PBM E-score” value is inactive: 0.0626.
Turning to CCGGTTGC, the “PBM E-score” value is inactive: -0.127.
Next, AATGGCGA: inactive: -0.0331.
Under ACACCGTG stands inactive: 0.154; under GACGGCAC, inactive: -0.157.
Turning to GCAGGATA, the “PBM E-score” value is inactive: -0.0699.
On to AGTTACAC, for which the “PBM E-score” value was inactive: 0.303.
Next, CGACATAC: inactive: 0.282; AGTTGGAT: not below 0.123; ACCTCCTA: inactive: -0.0429.
Next, CAGAATCG: inactive: -0.0244; ATATAGAG: inactive: -0.0179.
In the case of CCTTAAGA, the “PBM E-score” value was inactive: -0.0441.
Under GAACAGAA stands inactive: 0.125; under AAGCGGGT, inactive: -0.147; under ATTCCCTC, inactive: -0.0219.
Next, CCAATGTA: inactive: 0.226; GCACGACC: inactive: -0.133.
Regarding CAAGTGTC, the “PBM E-score” value is inactive: 0.0701.
Next, AACCAGAG: inactive: 0.0681.
